Assay results from paper PMC6919601, “Identification of Plasmodium dipeptidyl aminopeptidase allosteric inhibitors by high throughput screening” (PLoS ONE, 2019).
Among all 110,000 compounds or so, about 230 (0.21%) showed an effect of 50% or more. The list shows a part of the results.

Biological target: DPAP1 (Plasmodium falciparum, UniProt Q8IIJ9)
Test: primary screen, percent inhibition; read by cleavage of a fluorogenic dipeptide substrate; higher = more effect of the substance
Design: species or system P. falciparum D10 trophozoite lysates; single well
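Note: 30 min substrate incubation versus DMSO and 10 µM JCP410 controls.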

Sequence of DPAP1 (Q8IIJ9 whole entry, looked up): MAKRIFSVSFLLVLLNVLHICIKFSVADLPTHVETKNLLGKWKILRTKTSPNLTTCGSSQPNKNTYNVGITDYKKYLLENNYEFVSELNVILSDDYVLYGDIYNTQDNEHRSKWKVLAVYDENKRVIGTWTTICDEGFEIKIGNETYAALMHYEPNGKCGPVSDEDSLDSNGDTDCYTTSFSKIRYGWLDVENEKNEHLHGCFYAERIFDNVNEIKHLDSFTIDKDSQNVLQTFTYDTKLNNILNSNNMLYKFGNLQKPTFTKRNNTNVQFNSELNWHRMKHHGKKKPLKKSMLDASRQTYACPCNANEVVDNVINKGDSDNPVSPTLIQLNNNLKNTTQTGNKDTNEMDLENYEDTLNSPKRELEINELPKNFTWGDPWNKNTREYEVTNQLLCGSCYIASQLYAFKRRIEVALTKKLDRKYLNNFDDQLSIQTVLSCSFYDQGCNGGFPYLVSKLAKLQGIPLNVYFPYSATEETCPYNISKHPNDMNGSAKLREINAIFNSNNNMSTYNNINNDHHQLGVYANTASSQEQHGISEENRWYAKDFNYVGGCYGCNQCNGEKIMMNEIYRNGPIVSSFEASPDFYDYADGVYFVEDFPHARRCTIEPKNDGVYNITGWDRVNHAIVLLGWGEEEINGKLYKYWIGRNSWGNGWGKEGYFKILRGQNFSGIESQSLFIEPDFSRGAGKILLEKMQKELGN

Compound | % Inhibition @ 10 uM
CC1CCc2c(sc(NC(=O)c3cccc(F)c3F)c2C(N)=O)C1 (stereo not drawn) | 3.44%
Clc1cccc(NCc2ccncc2)c1 | 1.26%
CCCCNC(=O)C1Cc2ccccc2CN1S(=O)(=O)c1cccs1 (stereo not drawn) | 3.26%
O=C(c1ccco1)N1CCN(c2c(O)nc3ccc(Cl)cc3c2-c2ccccc2)CC1 | -2.14%
O=C(Nc1ccc(-c2nc3ccccc3o2)cc1)c1ccc(Oc2ccc([N+](=O)[O-])cc2)cc1 | -2.55%
CC(=O)NCCc1nc2ccccc2n1CCCCOc1ccccc1 | -4.29%
CN(C(=O)c1ccnn1C)C12CC3CC(CC(C3)C1)C2 | -0.48%
Cc1ccc(-n2nc(C)c(NS(=O)(=O)c3ccccc3)c2C)cc1C | 5.5%
CCOc1cccc2cc(-c3csc(NC4CCCCC4)n3)c(=O)oc12 | 2.4%
COc1ccc(CCNC(=O)c2cc3cc4ccc(C)cc4nc3s2)cc1OC | 2.02%
CC(=O)c1c(C)n(S(=O)(=O)c2ccccc2)c2ccc(NS(=O)(=O)c3ccccc3)cc12 | 5.26%
Cc1cc(Br)ccc1NC(=O)COc1ccccc1Cl | -7.9%
COc1ccc(-c2nonc2NC(=O)c2ccc(C(C)(C)C)cc2)cc1OC | 6.92%
CN(C)C(=O)Cc1c[nH]c2ccccc12 | -2.26%
CC1(C)Cc2c(C#N)c(O)nc(-c3ccco3)c2CO1 | 3.39%
CCOc1cc(-c2nn3c(CC)nnc3s2)cc(OCC)c1OCC | -1.07%
CCC1CCc2c(sc(NC(=O)CCCC(=O)O)c2C(N)=O)C1 (stereo not drawn) | -0.864%
CCCCN(C)C1CN2CCC1CC2 (stereo not drawn) | -1.82%
CCC(C)NC(=O)CSc1nc2cc(OC)c(OC)cc2c2nc(CCn3nc(C)cc3C)nn12 (stereo not drawn) | 6.08%
O=C1CSC(c2ccccc2)N1CCCN1CCOCC1 (stereo not drawn) | -4.16%
O=C(NCCc1ccc(Cl)cc1)c1cc2c(s1)CS(=O)(=O)C2 | -15.9%
COc1ccc2c(Cl)c(C(=O)Nc3ccc(S(=O)(=O)N4CCCCC4)cc3)sc2c1 | -4.28%
O=C(O)CP(=S)(c1ccccc1)c1ccccc1 | 1.84%
CC(C)CN(CCNC(=O)Cn1nc(-c2ccccc2)ccc1=O)CC(C)C | -4.83%
CC1(C)CC(OC(=O)c2ccccc2)CC(C)(C)N1OC(=O)CCCN1C(=O)c2ccccc2C1=O | -1.24%

Compound | % Inhibition @ 10 uM
CCN(CC)CCCCOc1ccccc1Cl | -2.12%
CCC(C)NC(=O)CCc1c(C)nc2c(c1C)c(=O)n(C)c(=O)n2C (stereo not drawn) | -6.91%
O=C(O)C1C2C=CC(C2)C1C(=O)NCCc1cccc(Cl)c1 (stereo not drawn) | -3.72%
O=c1oc2ccccc2n1Cc1cccc(C(F)(F)F)c1 | -1.06%
Cc1c(-c2ccccc2)nc2ccccc2c1C(=O)N1CCCC1 | -2.19%
CCOC(=O)Cc1csc(N[C@@H](CC(C)C)C(=O)NCC#N)n1 | 0.173%
O=C(COc1ccc(Cl)cc1Cl)Nc1ccc(C(=O)N2CCCCC2)cc1 | -2.58%
COc1ccc(N2C(=O)C(Cl)=C(Nc3cc(OC)ccc3OC)C2=O)cc1 | 0.385%
COc1ccc(S(=O)(=O)N(CC(=O)N2CCN(c3ccc(F)cc3)CC2)c2ccc(C)cc2)cc1 | 0.755%
Cc1ccccc1N1CCN(Cc2coc3c(Cl)cc(Cl)cc3c2=O)CC1 | -7.17%
CN(C)c1nc(N(C)C)nc(N(C#N)CCOc2ccccc2)n1 | 0.587%
COc1ccccc1C1C(C(C)=O)=C(C)N=c2s/c(=C\c3cccnc3)c(=O)n21 (stereo not drawn) | 2.8%
Cc1cc2oc3c(c(=O)c2cc1C)C(c1ccccc1F)N(CCCN1CCOCC1)C3=O (stereo not drawn) | -1.11%
C=CCc1ccccc1OCC(N)=O | -3.55%
O=C(Cc1ccc(Cl)cc1)Nc1ccc(Oc2ccc3c(c2)C(=O)NC3=O)cc1 | 0.145%
N=C1/C(=C/c2ccc(OCc3ccc4c(c3)OCO4)cc2)C(=O)N=C2SC=CN12 | 5.44%
O=C(COc1ccccc1Cl)Nc1ccc(S(=O)(=O)NC2CCCCC2)cc1 | 3.17%
Cc1ccc(CCNCc2c(C(=O)O)n(C)c3ccccc23)cc1 | -5.05%
COC(=O)c1[nH]c2c(c1C)C(=O)CC(c1cccc(OC)c1)C2 (stereo not drawn) | 2.35%
Cc1cc(Br)ccc1OCC(=O)NC(C)c1ccccc1 (stereo not drawn) | 6.15%
COC(=O)c1c(NC(=O)c2sc3ccccc3c2Cl)sc(C)c1C | 5.22%
O=[N+]([O-])c1ccccc1CN1CCN(c2cccc(Cl)c2)CC1 | 1.55%
CC(C)=CCCC(C)CN1CCC(C(N)=O)CC1 (stereo not drawn) | -1.21%
O=C(NCc1ccccn1)c1ccc(NS(=O)(=O)c2cccc(Cl)c2)cc1 | -1.04%
NS(=O)(=O)c1cccc2cc(C(=O)O)c(O)cc12 | 1.74%

Compound | % Inhibition @ 10 uM
COc1cnn(-c2cccc(C(F)(F)F)c2)c(=O)c1OC | 0.135%
Cc1ccc(NC(=O)Nc2cn(C)c(=O)c3ccccc23)nc1 | 4.44%
COc1cccc2c3c(c[n+](C)c12)sc1cccc(F)c13 | 11.2%
CC1CCN(S(=O)(=O)c2ccc3c(ccn3CCC(=O)NC(C)c3ccccc3)c2)CC1 (stereo not drawn) | -1.63%
Cc1cc(C)c2nc3c(c(N)c2c1)CCN3C | 3.47%
O=c1c(-c2ccc(Cl)cc2)coc2c(CN3CCOCC3)c(O)ccc12 | -4.39%
CCCCOc1ccc(-c2cc(C(=O)O)c3ccccc3n2)cc1 | -3.06%
C#CCOC(=O)/C(=C/C=C/c1ccccc1)NC(=O)c1ccccc1 | -2.87%
CC(CCc1ccccc1)NC(=O)c1cc2sc(Cl)cc2n1C (stereo not drawn) | -3.08%
COc1ccc2nc(NC(=O)C3=C(C)C(=O)OC34CCCCCC4)sc2c1 | 7.67%
Cc1cc(OCc2ccc(C(=O)Nc3cccnc3Cl)o2)ccc1Cl | 0.413%
CC1CCCCN1CCn1cnc2c3cc(F)ccc3nc-2c1O (stereo not drawn) | 4.8%
COc1ccc2oc(/C=C/N(C)C)c(C(=O)c3ccc(C)cc3)c2c1 | 8.67%
COc1ccc(CCNC(=O)CO/N=C/c2cc3c(cc2Br)OCO3)cc1OC | -4.35%
c1ccc(CCN2CCC(NC3CCCCCC3)CC2)cc1 | -1.41%
CCCCN(c1ncnc2onc(-c3ccc(F)cc3)c12)C1CCN(C(C)=O)CC1 | -0.705%
O=C(COc1ccc(Br)cc1)Nc1ccc(S(=O)(=O)N2CCOCC2)cc1 | 1.86%
COC(=O)c1cc(S(=O)(=O)NCc2ccc3c(c2)OCO3)cn1C | 2.32%
CCOc1ccc(S(=O)(=O)n2nc(C)c(Cl)c2C)c2ccccc12 | 5.45%
Cc1nnc2c(NCc3ccc4c(c3)OCO4)nc3ccc(C(=O)c4ccccc4)cc3n12 | 79.7%
Cc1cc(C(=O)Nc2cccc3ccccc23)c(C)o1 | 4.28%
CC(NC(=O)/C=C/c1ccc(Cl)cc1)c1ccccc1 (stereo not drawn) | -5.84%
COc1cc(C(=O)NCC(C)NC(=O)c2cc(OC)c(OC)c(OC)c2)cc(OC)c1OC (stereo not drawn) | -7.02%
CC1CCN(S(=O)(=O)c2ccc3c(ccn3CC(=O)NCc3ccc4c(c3)OCO4)c2)CC1 | 29.8%
Cc1ccc(N2CCN(CN3C(=O)S/C(=C/c4ccc(OCCO)cc4)C3=O)CC2)cc1 | -15.2%

Compound | % Inhibition @ 10 uM
COc1ccccc1/N=C/C1=C(O)CC(c2ccccc2)CC1=O (stereo not drawn) | 0.343%
Cc1cc(NS(=O)(=O)c2ccc(NC(=O)C3C4C=CC(C4)C3C(=O)O)cc2)nc(C)n1 (stereo not drawn) | 1.17%
COc1ccc2c(CNCc3ccco3)c(C(=O)O)n(Cc3ccccc3C)c2c1 | -1.09%
CC(=O)Nc1ccc(C2C(C#N)=C(N)Oc3[nH]nc(-c4ccc5ccccc5c4)c32)cc1 (stereo not drawn) | 12.3%
N#CCNC(=O)[C@H](CS(=O)(=O)Cc1ccccc1)NC(=O)c1cnc2ccccc2c1 | -0.413%
CN(C)CCN(C)Cc1c(F)cccc1F | 6.17%
COc1ccc(/C=C/C(=O)NCCc2ccccc2)cc1 | -2.03%
CCCNC(=O)C1CCCN(c2nnc(N3CCCC3=O)s2)C1 (stereo not drawn) | 3.87%
COc1ccc2c(c1)CCC1C2=NN(C(C)=O)C1c1ccc(F)cc1 (stereo not drawn) | 1.42%
CC(=O)N(CCCN(C)C)c1nc2c(F)cc(F)cc2s1 | -6.33%
O=C(O)C1CSC(c2ccc(OCc3ccccc3F)cc2)N1 (stereo not drawn) | 1.83%
O=C(C1=CCN(S(=O)(=O)c2ccccc2)CC1)N1CCN(c2ccccn2)CC1 | -5.19%
COc1ccc(C(=O)NC2CC(C)(C)Cc3occc32)cc1 (stereo not drawn) | -2.09%
COc1ccccc1CNC(=O)c1ccccc1C | 0.467%
CO/C(O)=C1\C(C)=NC2=C(C(=O)CC(C)(C)C2)C1c1cccc(Cl)c1 (stereo not drawn) | -0.0953%
CCCN1CCC(NCCc2ccc(Cl)cc2)CC1 | -1.56%
O=C(c1ccco1)N1CCN(C(=O)c2cccc3c2C(=O)N(Cc2cccnc2)C3)CC1 | 6.08%
Cc1cccc(C(=O)N2CCC(Cc3ccccc3)CC2)c1 | 3.53%
Cc1oc(-c2ccc(C(=O)NCCN(C)C)cc2)nc1CS(=O)c1ccccc1 (stereo not drawn) | 2.15%
N#CCNC(=O)C(Cc1cccc(-c2ccccc2)c1)CS(=O)(=O)Cc1ccccc1OC(F)F (stereo not drawn) | -1.83%
CC(=O)N(C)c1ccc(NC(=O)COc2cc(C)c(Cl)c(C)c2)cc1 | 3.57%
Cc1cccc(/C=C2/SC(=O)N(Cc3ccccc3)C2=O)n1 | -7.83%
Clc1ccc(CCNc2nn3nnnc3c3ccccc23)cc1 | -0.984%
O=C(c1noc2c1COc1ccccc1-2)N1CCC2(CC1)OCCO2 | 0.00665%
